Assay results from US20220177544A1 (BIONTECH CELL AND GENE THERAPIES, published 2022).
Positions count from the first letter of the chain named.

Experiments:
Test in all cases: cell-based or functional assay
[1] = target: T1, hIL2RA_mut4 (E1K, E29K, K38E) (Homo sapiens, UniProt P01589 23-272)
T1 chain: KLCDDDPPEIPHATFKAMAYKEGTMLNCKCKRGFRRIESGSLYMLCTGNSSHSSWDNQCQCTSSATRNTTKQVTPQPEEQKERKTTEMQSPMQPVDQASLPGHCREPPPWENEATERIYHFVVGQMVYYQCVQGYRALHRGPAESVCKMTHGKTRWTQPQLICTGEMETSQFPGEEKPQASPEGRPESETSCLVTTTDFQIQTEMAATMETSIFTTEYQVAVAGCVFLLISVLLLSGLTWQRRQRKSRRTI

hIL2RA_mut1 (E29K, K38E) [2] = target: T2, hIL2RA_mut1 (E29K, K38E) (Homo sapiens, UniProt P01589 22-272)
T2 chain: T1 chain with K1E

hIL2RA_mut2 (K38E) [3] = target: T3, hIL2RA_mut2 (K38E) (Homo sapiens, UniProt P01589 22-272)
T3 sequence: T1 chain with K1E, K29E

hIL2RA_mut3 (E29K) [4] = target: T4, hIL2RA_mut3 (E29K) (Homo sapiens, UniProt P01589 22-272)
T4 sequence: T1 chain with K1E, E38K

[5] = target: T5, hIL2RA (interleukin 2 receptor subunit alpha, CD25), wild type (Homo sapiens, UniProt P01589 22-272)
T5 sequence: T1 chain with K1E, K29E, E38K

[6] = target: T5, hIL2RA (interleukin 2 receptor subunit …); remark: listed apart in the source
[7] = target: T1, hIL2RA_mut4 (E1K, E29K, K38E)
hIL2RA_mut1 (E29K, K38E) [8] = target: T2, hIL2RA_mut1 (E29K, K38E)
hIL2RA_mut2 (K38E) [9] = target: T3, hIL2RA_mut2 (K38E); remark: listed apart in the source
hIL2RA_mut3 (E29K) [10] = target: T4, hIL2RA_mut3 (E29K); remark: listed apart in the source
[11] = target: T6, intermediate-affinity IL2 receptor (IL2Rβγ) (human, UniProt P14784 27-551; P31785 23-369)
T6 sequence (looked up) 1: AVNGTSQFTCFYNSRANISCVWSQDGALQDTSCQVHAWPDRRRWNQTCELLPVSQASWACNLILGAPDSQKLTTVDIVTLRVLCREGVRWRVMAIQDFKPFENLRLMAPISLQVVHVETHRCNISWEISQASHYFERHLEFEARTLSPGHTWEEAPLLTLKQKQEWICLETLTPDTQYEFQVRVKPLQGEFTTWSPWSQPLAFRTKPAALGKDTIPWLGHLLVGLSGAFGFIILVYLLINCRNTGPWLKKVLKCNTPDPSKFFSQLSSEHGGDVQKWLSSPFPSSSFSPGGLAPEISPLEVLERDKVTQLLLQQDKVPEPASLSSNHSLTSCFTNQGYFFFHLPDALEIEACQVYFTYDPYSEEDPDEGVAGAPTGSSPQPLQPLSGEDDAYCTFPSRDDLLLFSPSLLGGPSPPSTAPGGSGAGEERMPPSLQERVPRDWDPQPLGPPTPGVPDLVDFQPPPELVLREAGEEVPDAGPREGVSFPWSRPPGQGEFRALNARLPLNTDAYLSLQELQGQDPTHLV
T6 sequence (looked up) 2: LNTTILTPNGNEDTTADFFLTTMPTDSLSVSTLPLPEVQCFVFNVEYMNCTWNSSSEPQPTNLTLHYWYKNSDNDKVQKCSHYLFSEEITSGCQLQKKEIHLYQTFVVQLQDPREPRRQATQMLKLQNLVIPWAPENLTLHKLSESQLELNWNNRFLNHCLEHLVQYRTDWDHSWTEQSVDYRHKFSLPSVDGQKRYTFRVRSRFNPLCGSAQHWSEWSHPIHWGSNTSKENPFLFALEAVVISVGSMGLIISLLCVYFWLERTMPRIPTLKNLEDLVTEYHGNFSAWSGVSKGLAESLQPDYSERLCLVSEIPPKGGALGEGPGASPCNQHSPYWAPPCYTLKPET

EC50 [%-supernatant], STAT5 phosphorylation on CD8+ T cells electroporated with hIL2RA_mut4 [1]: 7.76 %-supernatant
EC50 [%-supernatant], STAT5 phosphorylation on CD8+ T cells electroporated with hIL2RA_mut1 (hIL2RA_mut1 (E29K, K38E) [2]): 1.43 %-supernatant
EC50 [%-supernatant], STAT5 phosphorylation on CD8+ T cells electroporated with hIL2RA_mut2 (hIL2RA_mut2 (K38E) [3]): 0.107 %-supernatant
EC50 [%-supernatant], STAT5 phosphorylation on CD8+ T cells electroporated with hIL2RA_mut3 (hIL2RA_mut3 (E29K) [4]): 0.069 %-supernatant
EC50 [%-supernatant], STAT5 phosphorylation on CD8+ T cells electroporated with hIL2RA [5]: 0.0067 %-supernatant
EC50 [%-supernatant], STAT5 phosphorylation on CD4+CD25+ regulatory T cells (natural CD25) [6]: 0.0175 %-supernatant
EC50 [%-supernatant], STAT5 phosphorylation on hIL2RA-electroporated CD8+ T cells [6]: 0.0062 %-supernatant
fold-increased potency on hIL2RA mutant versus hIL2RA wild-type electroporated CD8+ T cells (ratio of pSTAT5 EC50 values) [7]: 0.001 fold
fold-increased potency on hIL2RA mutant versus hIL2RA wild-type electroporated CD8+ T cells (ratio of pSTAT5 EC50 values) (hIL2RA_mut1 (E29K, K38E) [8]): 0.005 fold
fold-increased potency on hIL2RA mutant versus hIL2RA wild-type electroporated CD8+ T cells (ratio of pSTAT5 EC50 values) (hIL2RA_mut2 (K38E) [9]): 0.063 fold
fold-increased potency on hIL2RA mutant versus hIL2RA wild-type electroporated CD8+ T cells (ratio of pSTAT5 EC50 values) (hIL2RA_mut3 (E29K) [10]): 0.097 fold
EC50 [%-supernatant], proliferation of TF-1_IL2Rβγ cells (CellTiter-Glo) [11]: 4.65 %-supernatant
B1: hAlb-hIL2 (ligand)
chain: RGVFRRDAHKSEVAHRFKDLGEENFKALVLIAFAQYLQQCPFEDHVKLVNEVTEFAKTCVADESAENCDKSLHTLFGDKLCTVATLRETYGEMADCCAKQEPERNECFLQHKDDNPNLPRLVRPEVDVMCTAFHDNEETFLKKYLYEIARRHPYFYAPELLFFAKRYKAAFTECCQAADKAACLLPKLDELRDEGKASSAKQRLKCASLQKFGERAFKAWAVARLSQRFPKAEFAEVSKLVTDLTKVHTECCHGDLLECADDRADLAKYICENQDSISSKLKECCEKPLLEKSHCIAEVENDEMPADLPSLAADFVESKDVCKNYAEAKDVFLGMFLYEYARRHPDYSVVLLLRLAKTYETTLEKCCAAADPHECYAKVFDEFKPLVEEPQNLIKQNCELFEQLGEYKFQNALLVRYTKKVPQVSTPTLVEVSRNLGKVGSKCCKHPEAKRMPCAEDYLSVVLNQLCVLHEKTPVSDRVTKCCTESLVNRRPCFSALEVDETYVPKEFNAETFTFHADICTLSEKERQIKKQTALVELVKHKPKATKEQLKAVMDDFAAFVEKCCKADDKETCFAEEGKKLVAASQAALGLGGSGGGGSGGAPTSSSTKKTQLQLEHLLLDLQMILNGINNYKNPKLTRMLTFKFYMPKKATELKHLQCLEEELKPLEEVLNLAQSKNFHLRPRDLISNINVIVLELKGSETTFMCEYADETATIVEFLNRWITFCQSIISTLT
